# Measurements from the supplement of paper PMC12217912.
# This is one part of the list. Sequences were assembled here from the parent chain. Inactive controls read about 0.05.
# B1: TEV protease; numbered along this chain (parent)
# chain: MGESLFKGPRDYNPISSSICHLTNESDGHTTSLYGIGFGPFIITNKHLFRRNNGTLVVQSLHGVFKVKDTTTLQQHLVDGRDMIIIRMPKDFPPFPQKLKFREPQREERICLVTTNFQTKSMSSMVSDTSCTFPSGDGIFWKHWIQTKDGQCGSPLVSTRDGFIVGIHSASNFTNTNNYFTSVPKNFMELLTNQEAQQWVSGWRLNADSVLWGGHKVFMVKPEEPFQPVKEATQL
# Variants of: B1
# Assay: raw area under fraction-flipped curve 0-4 h after induction (AUC4h, not background-subtracted), DNA-recorder readout of cleavage of the substrate (dimensionless); higher = more cleavage of the substrate by the protease variant
# Settings: temperature: 34 °C; time window: 0-4 h after rhamnose induction
# Method: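 In vivo DNA recorder in E. coli TOP10(DE3) ΔrhaA at 34 °C. Each TEVp single-site mutant (parent TEVp 0) is paired with a single-site variant of the 7-mer TEVs (canonical ENLYFQ|S). The substrate sits between flexible linkers in a Bxb1-sfGFP-TEVs-SsrA fusion, so cleavage stabilises Bxb1 and speeds flipping of a recombination array, read by NGS. The value is the raw area under the fraction-flipped curve over 0-4 h after rhamnose induction (AUC4h), with ≥20 reads per time point. It is not background-subtracted; inactive controls average about 0.047.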
# 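Also: Bxb1 expression induced with 0.2% (w/v) L-rhamnose at OD600 near 0.5, cultures sampled hourly, flipped fraction per protease–substrate barcode pair counted by paired-end Illumina sequencing.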
Variant,area with substrate ENLAFQS,area with substrate ENLCFQS,area with substrate ENLDFQS,area with substrate ENLEFQS,area with substrate ENLFFQS,area with substrate ENLGFQS,area with substrate ENLHFQS,area with substrate ENLIFQS,area with substrate ENLKFQS,area with substrate ENLQFQS,area with substrate ENLRFQS,area with substrate ENLSFQS,area with substrate ENLVFQS,area with substrate ENLLFQS,area with substrate ENLMFQS,area with substrate ENLNFQS,area with substrate ENLWFQS,area with substrate ENLPFQS,area with substrate ENLTFQS
MGESLFKGPRDYNPISSSICHLTNESDGHTTSLYGIGFGPFIITNKHLFRRNNGTLVVQSLHGVFKVKDTTTLQQHLVDGRDMIIIRMPKDFPPFPQKLKFREPQREERICLVTTNFQTKSMSSMVSDTSCTFPSGDGIFWKHWIQTKDGQCGSPLVSTRSGFIVGIHSASNFTNTNNYFTSVPKNFMELLTNQEAQQWVSGWRLNADSVLWGGHKVFMVKPEEPFQPVKEATQL [D161S],0.0646,0.0683,0.0676,0.0825,0.0733,0.068,0.0608,0.0716,0.0783,0.0493,0.0625,0.0538,0.0742,–,–,–,–,–,–
MGESLFKGPRDYNPISSSICHLTNESDGHTTSLYGIGFGPFIITNKHLFRRNNGTLVVQSLHGVFKVKDTTTLQQHLVDGRDMIIIRMPKDFPPFPQKLKFREPQREERICLVTTNFQTKSMSSMVSDTSCTFPSGDGIFWKHWIQTKDGQCGSPLVDTRDGFIVGIHSASNFTNTNNYFTSVPKNFMELLTNQEAQQWVSGWRLNADSVLWGGHKVFMVKPEEPFQPVKEATQL [S158D],0.0659,0.0647,0.0572,0.0592,0.0758,–,0.0787,0.065,–,–,0.0711,0.0404,–,0.0676,0.0528,0.06,0.0279,–,–
MGESLFKGPRDYNPISSSICHLTNESDGHTTSLYGIGFGPFIITNKHLFRRNNGTLVVQSLHGVFKVKDTTTLQQHLVDGRDMIIIRMPKDFPPFPQKLKFREPQREERICLVTTNFQTKSMSSMVSDTSCTFPSGDGIFWKHWIQTKDGQCGSPLVITRDGFIVGIHSASNFTNTNNYFTSVPKNFMELLTNQEAQQWVSGWRLNADSVLWGGHKVFMVKPEEPFQPVKEATQL [S158I],0.0411,–,0.0489,–,0.0254,–,0.0243,–,0.0564,0.0562,–,0.0469,–,–,–,0.0561,0.0464,–,–
MGESLFKGPRDYNPISSSICHLTNESDGHTTSLYGIGFGPFIITNKHLFRRNNGTLVVQSLHGVFKVKDTTTLQQHLVDGRDMIIIRMPKDFPPFPQKLKFREPQREERICLVTTNFQTKSMSSMVSDTSCTFPSGDGIFWKHWIQTKDGQCGSPLVATRDGFIVGIHSASNFTNTNNYFTSVPKNFMELLTNQEAQQWVSGWRLNADSVLWGGHKVFMVKPEEPFQPVKEATQL [S158A],0.0647,–,–,0.0678,0.0837,–,0.0636,–,–,–,0.058,0.0495,–,0.0745,0.105,0.0639,–,0.0818,–
MGESLFKGPRDYNPISSSICHLTNESDGHTTSLYGIGFGPFIITNKHLFRRNNGTLVVQSLHGVFKVKDTTTLQQHLVDGRDMIIIRMPKDFPPFPQKLKFREPQREERICLVTTNFQTKSMSSMVSDTSCTFPSGDGIFWKHWIQTKDGQCGSPGVSTRDGFIVGIHSASNFTNTNNYFTSVPKNFMELLTNQEAQQWVSGWRLNADSVLWGGHKVFMVKPEEPFQPVKEATQL [L156G],0.0483,0.0598,0.0467,0.0576,0.066,–,0.058,0.0567,0.0521,–,0.0707,0.0308,–,–,0.0692,0.0501,0.0631,0.0401,–
MGESLFKGPRDYNPISSSICHLTNESDGHTTSLYGIGFGPFIITNKHLFRRNNGTLVVQSLHGVFKVKDTTTLQQHLVDGRDMIIIRMPKDFPPFPQKLKFREPQREERICLVTTNFQTKSMSSMVSDTSCTFPSGDGIFWKHWIQTKDGQCGSPCVSTRDGFIVGIHSASNFTNTNNYFTSVPKNFMELLTNQEAQQWVSGWRLNADSVLWGGHKVFMVKPEEPFQPVKEATQL [L156C],0.0865,–,–,–,0.0784,–,0.0713,0.0843,0.0865,0.0828,0.0648,0.0547,–,0.0785,–,–,0.0729,0.0382,–
MGESLFKGPRDYNPISSSICHLTNESDGHTTSLYGIGFGPFIITNKHLFRRNNGTLVVQSLHGVFKVKDTTTLQQHLVDGRDMIIIRMPKDFPPFPQKLKFREPQREERICLVTTNFQTKSMSSMVSDTSCTFPSGDGIFWKHWIQTKDGQCGSPLVSTRDAFIVGIHSASNFTNTNNYFTSVPKNFMELLTNQEAQQWVSGWRLNADSVLWGGHKVFMVKPEEPFQPVKEATQL [G162A],0.0659,–,0.0475,0.064,0.0629,–,–,–,0.0561,–,–,0.0658,–,0.0631,–,0.0746,–,–,–
MGESLFKGPRDYNPISSSICHLTNESDGHTTSLYGIGFGPFIITNKHLFRRNNGTLVVQSLHGVFKVKDTTTLQQHLVDGRDMIIIRMPKDFPPFPQKLKFREPQREERICLVTTNFQTKSMSSMVSDTSCTFPSGDGIFWKHWIQTKDGQCGSNLVSTRDGFIVGIHSASNFTNTNNYFTSVPKNFMELLTNQEAQQWVSGWRLNADSVLWGGHKVFMVKPEEPFQPVKEATQL [P155N],0.05,0.0611,0.0429,–,0.057,0.0622,0.0575,0.0646,0.0496,0.0491,–,0.0502,0.0483,0.0527,0.0625,0.0526,0.0564,0.0085,0.0565
MGESLFKGPRDYNPISSSICHLTNESDGHTTSLYGIGFGPFIITNKHLFRRNNGTLVVQSLHGVFKVKDTTTLQQHLVDGRDMIIIRMPKDFPPFPQKLKFREPQREERICLVTTNFQTKSMSSMVSDTSCTFPSGDGIFWKHWIQTKDGQCGSPLVSTRDGFIGGIHSASNFTNTNNYFTSVPKNFMELLTNQEAQQWVSGWRLNADSVLWGGHKVFMVKPEEPFQPVKEATQL [V165G],0.0466,–,0.0549,0.0516,0.0581,–,0.0494,0.0516,0.068,0.0516,0.0567,0.0515,0.0536,–,–,–,0.0474,0.0512,0.0702
